# Laboratory results: a collection of fitness landscapes (doi:10.1126/science.1257360)
# Some of the results follow.
# B1: PhoQ; a variant is named by its letters at X, in order, P23837 (parent)
# chain: MKKLLRLFFPLSLRVRFLLATAAVVLVLSLAYGMVALIGYSVSFDKTTFRLLRGESNLFYTLAKWENNKLHVELPENIDKQSPTMTLIYDENGQLLWAQRDVPWLMKMIQPDWLKSNGFHEIEADVNDTSLLLSGDHSIQQQLQEVREDDDDAEMTHSVAVNVYPATSRMPKLTIVVVDTIPVELKSSYMVWSWFIYVLSANLLLVIPLLWVAAWWSLRPIEALAKEVRELEEHNRELLNPATTRELTSLVRNLNRLLKSERERYDKYRTTLTDLTHSLKTPLXXLQXXLRSLRSEKMSVSDAEPVMLEQISRISQQIGYYLHRASMRGGTLLSRELHPVAPLLDNLTSALNKVYQRKGVNISLDISPEISFVGEQNDFVEVMGNVLDNACKYCLEFVEISARQTDEHLYIVVEDDGPGIPLSKREVIFDRGQRVDTLRPGQGVGLAVAREITEQYEGKIVAGESMLGGARMEVIFGRQHSAPKDE
# Variants of: B1
# Test: enrichment ratio after two sorts for PhoP signalling (ratio (wild type AVST 3.29)); higher = more functional
# Settings: with PhoP (E. coli)
row,Variant,enrichment ratio
1,NSEF,≤ 0.25
2,TWHY,≤ 0.25
3,VTMS,≤ 0.25
4,ICNG,≤ 0.25
5,KSEH,≤ 0.25
6,PLEN,≤ 0.25
7,AANG,≤ 0.25
8,FLHY,≤ 0.25
9,TCGH,23.5
10,LFTT,≤ 0.25
11,KMVH,≤ 0.25
12,EPEK,≤ 0.25
13,TEIL,4.44
14,FQYT,≤ 0.25
15,DMDT,≤ 0.25
16,FETP,≤ 0.25
17,NQSL,≤ 0.25
18,MAEF,≤ 0.25
19,NRCP,≤ 0.25
20,GKQQ,≤ 0.25
21,RFRG,≤ 0.25

row,Variant,enrichment ratio
1,AQPN,≤ 0.25
2,RGVP,≤ 0.25
3,HNRK,≤ 0.25
4,AQCL,16
5,PPTL,≤ 0.25
6,EITI,≤ 0.25
7,LLLM,≤ 0.25
8,VPRA,≤ 0.25
9,PKQC,≤ 0.25
10,FNLS,≤ 0.25
11,MKCI,≤ 0.25
12,KHCK,≤ 0.25
13,LDKW,≤ 0.25
14,CVSR,≤ 0.25
15,EFIK,≤ 0.25
16,YFPP,≤ 0.25
17,TFPS,≤ 0.25
18,AQNV,≤ 0.25
19,AMLY,2.86
20,ECIK,≤ 0.25
21,GQAE,≤ 0.25

row,Variant,enrichment ratio
1,AEFW,≤ 0.25
2,WPEA,≤ 0.25
3,RWHA,≤ 0.25
4,RPAG,≤ 0.25
5,FITT,≤ 0.25
6,HQSD,≤ 0.25
7,FCVI,≤ 0.25
8,HKGF,≤ 0.25
9,HQKL,≤ 0.25
10,FREP,≤ 0.25
11,GNPT,≤ 0.25
12,NQSF,≤ 0.25
13,EVRR,0.276
14,NRQG,≤ 0.25
15,SLFD,≤ 0.25
16,DSRF,≤ 0.25
17,HKDY,≤ 0.25
18,DRSL,≤ 0.25
19,LKQD,≤ 0.25
20,LQKA,≤ 0.25
21,YITW,≤ 0.25

row,Variant,enrichment ratio
1,TQTG,5.83
2,TRYL,≤ 0.25
3,WFCF,≤ 0.25
4,NKIA,≤ 0.25
5,GGGK,≤ 0.25
6,WGNK,≤ 0.25
7,SKRT,≤ 0.25
8,VHGC,≤ 0.25
9,QDYL,≤ 0.25
10,KFPL,≤ 0.25
11,IENF,≤ 0.25
12,YDLR,≤ 0.25
13,KDQV,≤ 0.25
14,ISVN,≤ 0.25
15,PSAN,≤ 0.25
16,TFHL,2.95
17,ENQG,≤ 0.25
18,GSHQ,≤ 0.25
19,HFWW,≤ 0.25
20,PGND,≤ 0.25
21,ELRL,≤ 0.25
